Test results as given in PubChem BioAssay AID485344 (National Center for Advancing Translational Sciences (NCATS), 2010).
Out of some 340,000 compounds screened, about 6,900 (2%) were called active. Cut-off read from the data, not from the text of the source: active = inhibition above about 30%; inactive = below that, where a call was filed. Only a part is listed here, and it is no random draw. The source gives no active or inactive call for entries shown without one. Some compounds were tested as several samples or in several runs, with calls that do not always agree.

What follows are molecules tested against D(2) dopamine receptor (Homo sapiens) (UniProt P14416) (assay: HTS Assay for Allosteric Antagonists of the Human D2 Dopamine Receptor: Primary Screen for Antagonists). Conditions: HEK293 TREx D2 cells, calcium flux, dopamine EC80; at 10 µM; stronger effect = higher value.
Summary of the method: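 Dopamine at EC80 is the agonist stimulus; test compounds precede it by 180 s. Calcium flux read kinetically in a force-coupled, inducible HEK293 T-REx D2 cell line.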
Note: 0% is about no effect.

Sequence of UniProt P14416 (P14416 whole entry, looked up): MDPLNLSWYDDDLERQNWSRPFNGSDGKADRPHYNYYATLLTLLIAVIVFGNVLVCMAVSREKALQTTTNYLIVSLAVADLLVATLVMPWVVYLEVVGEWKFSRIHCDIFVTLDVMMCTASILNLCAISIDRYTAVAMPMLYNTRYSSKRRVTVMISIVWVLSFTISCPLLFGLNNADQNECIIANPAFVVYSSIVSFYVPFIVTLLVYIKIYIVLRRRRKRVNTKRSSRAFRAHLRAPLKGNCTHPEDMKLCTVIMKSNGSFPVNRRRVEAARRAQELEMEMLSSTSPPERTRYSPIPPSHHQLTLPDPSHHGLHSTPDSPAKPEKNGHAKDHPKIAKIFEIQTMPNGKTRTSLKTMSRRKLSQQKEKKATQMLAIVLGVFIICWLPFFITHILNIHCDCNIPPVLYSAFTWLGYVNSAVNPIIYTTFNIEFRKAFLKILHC

| SMILES | inhibition |
| --- | --- |
| CCN(CC)c1ccc(NS(=O)(=O)c2cc(-c3cc(C)no3)ccc2C)c(C)c1 | 0.0331% |
| COc1cc(C(=O)N2CCN(C(=O)COc3cccc(C)c3)CC2)cc(OC)c1OC | 16.1% |
| Cc1cccc(C(=O)N(Cc2ccccc2F)C2CCS(=O)(=O)C2)c1 (centres undefined) | 10.6% |
| COC(=O)c1c(NC(=O)COc2cccc(C(F)(F)F)c2)sc2c1CCCC2 | -10.8% |
| COc1ccc(Cc2nc3c4cnn(-c5cccc(F)c5)c4ncn3n2)cc1 | 5.11% |
| CCOc1ccccc1C(=O)Nc1ccc(S(=O)(=O)N(Cc2ccccc2)c2ccccc2)cc1 | -6.35% |
| CCOC(=O)c1ccccc1NC(=O)Cn1ccn2nc(-c3ccc(OCC)cc3)cc2c1=O | 5.33% |
| Cc1ccccc1-c1noc(-c2nnn(-c3ccccc3C)c2N)n1 | 8.64% |
| Cc1ccc(-n2cc(C(=O)OCc3ccc(F)c(F)c3)c3ccccc3c2=O)cc1 | 4.34% |
| COc1ccc(/C=C2/N=C(SCC(=O)Nc3cc(C)on3)N(c3ccccc3)C2=O)cc1 | active: 31.5% |
| CCCN1Cc2cccc(C(=O)Nc3ccccc3C(=O)OC)c2C1=O | 4.49% |
| CCOc1ccc(NC(=O)CN2CCN(CC(=O)Nc3ccc(F)cc3F)CC2)cc1 | 0.644% |
| O=C(NCCN1CCN(c2ccccc2)CC1)c1ccc2c(c1)[nH]c(=S)n1c3ccccc3nc21 | active: 33.6% |
| Cc1cccc(NC(=S)NC(NC(=O)c2ccco2)C(Cl)(Cl)Cl)c1 (centres undefined) | active: 30.3% |
| Cc1ccc(CNC(=O)C2CCCN(c3ncnc4onc(-c5ccc(F)cc5)c34)C2)cc1 (centres undefined) | -5.64% |
| COc1ccc(OC)c(NC(=O)Cn2c(=O)cc(C)c3c(C)nn(-c4cccc(Cl)c4C)c32)c1 | 9.49% |
| CN1CC(=O)Nc2cc(C(=O)O)ccc21 | -11.2% |
| O=C(OCc1nc2ccccc2s1)c1ccc(Br)s1 | active: 31.9% |
| O=C(CN1C(=O)CCSc2ccccc21)Nc1ccc(C(F)(F)F)cc1 | 9.42% |
| CCOc1ccccc1NC(=O)Cn1c(=O)n(Cc2cccs2)c(=O)c2cccnc21 | -4.58% |
| CCC(C(=O)NCCc1cc(OC)ccc1OC)n1nc(C)c2c(C)n(-c3ccccc3)nc2c1=O (centres undefined) | -10.1% |
| Fc1ccc(-c2nn(-c3ccc(Cl)cc3)c3c2cnc2ccc(F)cc23)cc1 | -0.997% |
| COc1ccc(-n2c(=O)c3ccccc3n(Cc3ccccc3Cl)c2=O)cc1 | -17.2% |
| CC(Sc1nc(=O)cc(N)n1CCc1ccccc1)C(=O)Nc1cccc(Cl)c1 (centres undefined) | 17.5% |

| SMILES | inhibition |
| --- | --- |
| Cc1ccc(C)c(CN2C(=O)c3ccccc3S(=O)c3ccc(C(=O)N4CCOCC4)cc32)c1 (centres undefined) | -23% |
| COc1ccc(C(=O)Nc2nc3n(n2)C(c2ccc(Cl)cc2)C=C(c2ccccc2)N3)cc1OC (centres undefined) | -5.24% |
| COc1ccccc1N1CCN(S(=O)(=O)c2c(C)sc3ncn(CC(=O)Nc4ccc(C)cc4Br)c(=O)c23)CC1 | -3.25% |
| Cc1ccc(Nc2sc(C(=O)c3ccc(F)cc3)c(N)c2S(=O)(=O)c2ccc(C)cc2)cc1 | -13.5% |
| Cc1ccc(S(=O)(=O)c2nnn3c2nc(N2CCOCC2)c2sccc23)cc1C | 2.1% |
| CCCS(=O)(=O)Nc1cc(-c2cn3ccc(C)cc3n2)ccc1C | 12.1% |
| O=C(Nc1ccc2nc(SCC(=O)N3CCCc4ccccc43)sc2c1)c1ccc(Cl)cc1 | -1.6% |
| Cc1ccc(-n2ncc(C(=O)NC3CCN(Cc4ccccc4)CC3)c2C2CCN(C(=O)OC(C)(C)C)CC2)cc1C | -4.7% |
| Cc1ccc(CSC2=Nc3ccccc3C3=NC(CC(=O)NCc4ccc5c(c4)OCO5)C(=O)N23)cc1 (centres undefined) | 14.4% |
| Cc1cccc(C2N=C(N)Nc3nc4ccccc4n32)c1 (centres undefined) | 10.3% |
| COc1cc(OC)c(NC(=O)c2ccc3c(c2)N(Cc2ccc(C)cc2)CCS3)cc1Cl | 1.72% |
| OC(COc1ccc2c(c1)OCO2)CN1CCN(c2ccc(F)cc2)CC1 (centres undefined) | active: 75.8% |
| Cn1c(N)c(C(=O)CSc2nnnn2-c2ccccc2)c(=O)n(C)c1=O | active: 38.6% |
| COc1ccccc1NC(=O)N(Cc1cccs1)Cc1cc2cc3c(cc2[nH]c1=O)OCO3 | active: 35.5% |
| CCN(CC)S(=O)(=O)c1ccc2c(c1)c(=O)c(C(=O)N1CCN(c3cccc(Cl)c3)CC1)cn2C | 14.6% |
| Cn1c(=O)oc2cc(S(=O)(=O)NC(Cc3ccccc3)C(=O)NCc3ccccc3Cl)ccc21 (centres undefined) | -8.98% |
| COc1ccc(-c2n[nH]c3c2cnc2cc(OC)c(OC)cc23)cc1 | -14% |
| CCOc1ccccc1CNC(=O)C1CCN(c2nc3ccccc3nc2C(F)(F)F)CC1 | 0.263% |
| CN1C(C(=O)Nc2cccc(O)c2)=CC(c2ccco2)=NS1(=O)=O | -9.16% |
| Cc1cccc(N2CCn3c2nc2c3c(=O)n(C/C=C/c3ccccc3)c(=O)n2C)c1 | 25.6% |
| COc1ccc(-c2cc(C(=O)N3CCN(c4ccccc4)CC3)no2)cc1 | 1.25% |
| CC(C)c1ccc(NC(=O)N2c3ccccc3Sc3ccccc32)cc1 | -12.1% |
| C=Cc1ccc(Cn2c(=O)n(-c3cccc(Cl)c3)c(=O)c3c4c(sc32)CN(C(C)=O)CC4)cc1 | -4.92% |
| COCCCNC(=O)CCn1c(=O)c2ccccc2n(CC(=O)Nc2cc(Cl)ccc2OC)c1=O | 4.58% |

| SMILES | inhibition |
| --- | --- |
| CCN(Cc1ccccc1)Cc1c(O)ccc2oc(C)c(C(=O)Nc3ccc(C)cc3C)c12 | 10.9% |
| Cc1ccc(S(=O)(=O)N(CC(=O)NCCSc2ccc(Cl)cc2)c2ccccc2C)cc1 | -27.2% |
| O=C(CCCCCn1c(=O)c2sccc2n(Cc2ccc(Cl)cc2)c1=O)NCc1ccc2c(c1)OCO2 | -0.955% |
| Cc1cc(Br)ccc1NC(=O)c1sc2nc3n(c(=O)c2c1C)CCCC3 | 7.41% |
| CC(C)CCNC(=O)Cn1c(-c2cccs2)cc2cc(F)ccc21 | 5.61% |
| COc1ccc(NC(=O)COC(=O)c2cc(OC)c(OC)cc2NC(=O)c2ccco2)cc1OC | active: 57.5% |
| Cc1ccc(NC(=O)C2CCN(c3nnc(C)c4c(C)n(-c5ccccc5)nc34)CC2)c(Cl)c1 | -5.5% |
| COc1ccc(Cl)cc1C(=O)Nc1nnc2n1CCS2 | -28.3% |
| CCc1nnc(NC(=O)c2nc(SCc3ccccc3F)ncc2Cl)s1 | -26.1% |
| CCCCOc1ccc(Cn2c(=O)oc3ccc(C)cc32)cc1OC | -6.5% |
| COc1ccc(S(=O)(=O)N2CCN(c3cccc(C)c3C)CC2)c2ccccc12 | -18.9% |
| CCc1c(C)nc2nncn2c1NCc1ccccc1 | 10.6% |
| O=S1(=O)c2ccccc2N(Cc2ccc(Cl)cc2)c2ccccc21 | -3.7% |
| COc1ccc2c(c1)c(=O)c(C(=O)c1ccc(F)cc1)cn2CC(=O)Nc1ccc2c(c1)OCO2 | 1.09% |
| CCOC(=O)CNC(=O)N1[C@H](c2cccs2)[C@@H](C)C(=O)[C@@H](C)[C@@H]1c1cccs1 | 2.45% |
| CCOc1ccc(N2CC(NC(=O)C3CCCCC3)CC2=O)cc1 (centres undefined) | -12.9% |
| COc1cc(NC(=O)c2nc3nc(C)cc(C(F)F)n3n2)c(OC)cc1Cl | -2.5% |
| Cc1ccc(CNC(=O)c2ccc(CN3CC(=O)N4CCCCC4C3=O)cc2)cc1 (centres undefined) | -14.2% |
| Cc1cc(C)cc(NC(=O)Cn2cc(C(=O)c3cccs3)c3ccccc32)c1 | 7.38% |
| COc1ccc(Nc2c(-c3ccc(C)o3)nc3cc(C)ccn23)cc1 | 5.18% |
| CC(=O)N1CCC(N(Cc2ccco2)C(=O)Nc2ccc(C)c(Cl)c2)CC1 | -4.08% |
| Cc1ccc2[nH]c3c(=O)n(CC(=O)N(CCN(C)C)Cc4ccccc4)ncc3c2c1 | -9.94% |
| O=C(O)c1cc(-c2ccccc2)nc2ccccc12 | active: 40.3% |
| CN1CCC(N(C)S(=O)(=O)c2ccc(F)cc2F)CC1 | active: 32.8% |

| SMILES | inhibition |
| --- | --- |
| O=C(COc1ccc(Cl)cc1Cl)Nc1cccc2cccnc12 | 8.61% |
| Cc1nnc(N2C(=O)c3oc4ccccc4c(=O)c3C2c2ccc(Cl)cc2)s1 (centres undefined) | -3.85% |
| Cc1ccc2c(c1)C(=O)OC(C(=O)Nc1ncc(Cc3ccc(Cl)cc3)s1)C2 (centres undefined) | -3.43% |
| Cc1c(C(=O)OC2CCCCCC2)[nH]c2c1C(=O)CC(c1ccc(Cl)cc1)C2 (centres undefined) | 10.4% |
| Cc1cccc(C)c1-n1ncc(C(=O)NC2CCCC2)c1C1CCN(C(=O)OC(C)(C)C)CC1 | -2.33% |
| O=C(c1ccc2c(c1)CCN2S(=O)(=O)c1ccc(Cl)cc1)N1CCN(c2ccc(F)cc2)CC1 | -14.1% |
| CCOc1ccc(NC(=O)NCc2cccn2Cc2ccccc2)cc1 | -12.9% |
| Cc1cccc(OCC(=O)Nc2cccc3cccnc23)c1C | -6.8% |
| COc1ccc(N2CCN(C(=O)CCc3c(C)nc4cc(-c5ccc(OC)cc5OC)nn4c3C)CC2)cc1 | -18.6% |
| CC1Cc2cc(/C(O)=C3/C(=O)C(=O)N(CCCn4ccnc4)C3c3ccc(F)cc3)ccc2O1 (centres undefined) | active: 44.2% |
| CCOC(=O)c1c(NC(=O)c2ccccc2OCC)sc2c1CCC(CC)C2 (centres undefined) | -4.98% |
| CN(C)S(=O)(=O)c1ccc(C(=O)NCCSc2c(-c3ccc(Cl)cc3)[nH]c3ccccc23)cc1 | -3.93% |
| CCCOc1ccc(C2C(=O)N(C3CCCCCC3)CC(=O)N2CCC)cc1OC (centres undefined) | 17.6% |
| COc1ccccc1N1CCN(C(=O)c2cnn(-c3ccc(F)cc3F)c2C2CCNCC2)CC1 | 6.25% |
| Cc1ccc(Nc2nnc(-c3ccc(C)c(S(N)(=O)=O)c3)c3ccccc23)cc1 | 10.9% |
| COc1cccc(C(=O)Nc2ccc3oc(-c4cccc5c(Br)cccc45)nc3c2)c1 | 3.19% |
| COc1ccc(S(=O)(=O)NCC(c2ccc(N(C)C)cc2)N2CCc3ccccc32)cc1OC (centres undefined) | 7.3% |
| CCc1ccccc1N(C)C(=O)c1ccc2c(=O)n3c(nc2c1)CCCCC3 | -6.89% |
| CCOc1ccc(CC(=O)NCC(c2cccs2)S(=O)(=O)c2ccc(F)c(C)c2)cc1 (centres undefined) | -1.28% |
| CCc1ccc(NC(=O)C(CC)n2c(=O)c(-c3ccccc3NC(C)=O)nc3ccccc32)cc1 (centres undefined) | 28.2% |
| Cc1ccc(NC(=O)C2CC(=O)N(c3ccc(OC(C)C)cc3)C2)cc1 (centres undefined) | 4.29% |
| CCOC(=O)c1c(C)c(-c2ccccc2)n(CC(=O)NC(CC)Cc2ccccc2)c1C (centres undefined) | -0.733% |
